PMC4336329 (PLoS ONE, 2015)
Hit rate of the full screen: of about 310,000 compounds, about 2,200 (0.71%) showed an effect of 50% or more. The effect is printed as a negative number. This is one part of the list.

Each compound was assayed against human ether-à-go-go-related gene (hERG) potassium channel (human, UniProt Q12809) (assay: primary screen, population patch clamp on CHO cells stably expressing hERG).
Chain of human ether-à-go-go-related gene (hERG) potassium channel (Q12809 whole entry, looked up): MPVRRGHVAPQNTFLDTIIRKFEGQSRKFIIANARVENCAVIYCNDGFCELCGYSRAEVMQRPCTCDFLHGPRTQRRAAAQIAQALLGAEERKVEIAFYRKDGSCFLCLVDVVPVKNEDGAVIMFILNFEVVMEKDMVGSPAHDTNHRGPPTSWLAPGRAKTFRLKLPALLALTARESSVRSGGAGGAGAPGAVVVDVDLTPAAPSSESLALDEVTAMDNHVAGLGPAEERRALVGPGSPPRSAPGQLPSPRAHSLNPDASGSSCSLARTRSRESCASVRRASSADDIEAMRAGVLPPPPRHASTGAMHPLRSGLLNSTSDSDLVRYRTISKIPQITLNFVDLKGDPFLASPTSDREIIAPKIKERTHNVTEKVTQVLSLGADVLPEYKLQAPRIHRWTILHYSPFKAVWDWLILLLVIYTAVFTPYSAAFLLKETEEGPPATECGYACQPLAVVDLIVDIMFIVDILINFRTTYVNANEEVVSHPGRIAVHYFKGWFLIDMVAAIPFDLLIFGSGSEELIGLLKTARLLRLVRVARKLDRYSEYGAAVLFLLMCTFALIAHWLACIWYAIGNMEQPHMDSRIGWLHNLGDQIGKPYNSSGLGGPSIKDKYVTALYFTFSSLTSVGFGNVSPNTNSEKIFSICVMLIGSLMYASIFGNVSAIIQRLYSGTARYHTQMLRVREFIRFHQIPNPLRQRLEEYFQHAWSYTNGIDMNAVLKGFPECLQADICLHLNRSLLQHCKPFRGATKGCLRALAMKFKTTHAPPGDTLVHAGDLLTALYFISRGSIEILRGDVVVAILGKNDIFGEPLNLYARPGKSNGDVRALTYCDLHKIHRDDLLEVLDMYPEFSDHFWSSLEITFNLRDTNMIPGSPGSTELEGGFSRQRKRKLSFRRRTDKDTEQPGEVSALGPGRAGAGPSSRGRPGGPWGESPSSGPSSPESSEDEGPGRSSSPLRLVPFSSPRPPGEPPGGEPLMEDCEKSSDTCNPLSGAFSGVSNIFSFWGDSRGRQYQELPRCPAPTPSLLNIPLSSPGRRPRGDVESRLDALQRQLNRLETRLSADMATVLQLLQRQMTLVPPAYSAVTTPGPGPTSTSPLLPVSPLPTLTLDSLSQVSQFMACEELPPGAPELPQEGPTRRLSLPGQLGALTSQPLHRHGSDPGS

First: O=C(NCCN1CCOCC1)c1ccc(CS(=O)(=O)c2c(Cl)cccc2Cl)o1
Second: CN(CC1COc2ccccc2O1)C(=O)c1ccc(Cl)c(S(=O)(=O)N2CCCCCC2)c1 (centres unmarked)
The “hERG current change (%, negative = inhibition) at 1uM” value of the first is higher: 5.1% for the first, 2.78% for the second.

First: C=CCN1C(=O)NC(=O)/C(=C/c2ccc(OCC(=O)Nc3ccc(C)cc3)cc2)C1=O
Second: Cc1ccc(NC(=O)COC(=O)CCOc2ccccc2C)cc1
The “hERG current change (%, negative = inhibition) at 1uM” value of the first is higher: 15.3% for the first, 14.5% for the second.

First: COc1ccc(C)cc1NC(=O)CC1COc2ccccc2O1 (centres unmarked)
Second: Cc1ccc(C(=O)O/N=C/c2ccc3c(c2)OCO3)cc1
The “hERG current change (%, negative = inhibition) at 1uM” value of the first is lower: 3.47% for the first, 9.59% for the second.

Going from `Cc1ccc(S(=O)(=O)Nc2c(C)[nH]c(=O)[nH]c2=O)cc1C` to `Cc1ccc(S(=O)(=O)N2CCN(C(=O)c3nn(C(C)C)c(=O)c4ccccc34)CC2)cc1C`, the “hERG current change (%, negative = inhibition) at 1uM” value falls from 12.2% to 5.96%.

Going from `O=C(Nc1ncccc1O)c1c(O)c2ccccc2[nH]c1=O` to `O=c1oc2ccccc2cc1-c1ccc(O)cc1O`, the “hERG current change (%, negative = inhibition) at 1uM” value rises from 6.38% to 12.4%.

Compared with `COc1cc(C(C)=O)ccc1OCC(=O)Nc1ccc(C)c(S(=O)(=O)N2CCCCCC2)c1`, `CCN(C(=O)COC(=O)c1cc(NS(=O)(=O)c2ccc(Cl)c([N+](=O)[O-])c2)ccc1O)C1CCCCC1` is lower in “hERG current change (%, negative = inhibition) at 1uM” value: 8.06% for the first, 3.94% for the second.

Compared with `CCOC(=O)C1CCN(c2cc3c(cc2NC(=O)c2ccc(F)cc2)n(C)c(=O)n3C)CC1`, `CCN1C(=O)/C(=C\N2CCN(c3ccc(F)cc3)CC2)SC1=S` is lower in “hERG current change (%, negative = inhibition) at 1uM” value: 19.6% for the first, 9.06% for the second.

Compared with `COc1ccc(Nc2cc(C)nc3c(C)cccc23)cc1OC`, `COc1ccc(CCN(C)c2ccc(C(N)=O)cc2[N+](=O)[O-])cc1OC` is higher in “hERG current change (%, negative = inhibition) at 1uM” value: 2.51% for the first, 9.04% for the second.

Going from `CC(C)OC(=O)C1C2C=CC3(CN(CC4CCCO4)C(=O)C13)O2` (centres unmarked) to `CN1CCN(S(=O)(=O)c2ccc(-c3noc(C4CCN(S(C)(=O)=O)CC4)n3)cc2)CC1`, the “hERG current change (%, negative = inhibition) at 1uM” value falls from 9.21% to 1.58%.

First: CNC(=O)NC(=O)C(C)OC(=O)CCCc1nc2ccccc2s1 (centres unmarked)
Second: CCc1ccc(OCC(=O)NNC(=O)Cc2cccs2)cc1
The “hERG current change (%, negative = inhibition) at 1uM” value of the first is higher: 15.6% for the first, 5.25% for the second.

Going from `Cc1ccc(C=Nc2ccccc2C(=O)Nc2ccccc2)cc1` to `CCOc1ccccc1NC(=O)c1cccc2ccccc12`, the “hERG current change (%, negative = inhibition) at 1uM” value rises from 10.3% to 10.9%.

First: CC(C)n1cnc2cc(NCc3ccccn3)ccc21
Second: Cc1ccc2c(c1)c1c(n2CC(O)Cn2c(C)nc3ccccc32)CCCC1 (centres unmarked)
The “hERG current change (%, negative = inhibition) at 1uM” value of the first is higher: 5.91% for the first, 0.779% for the second.

Compared with `CC(NC(=O)c1cc2sccc2n1C)c1ccc2c(c1)OCCO2` (centres unmarked), `COc1ccc(C(CC(=O)O)NC(=O)c2ccco2)cc1OC` (centres unmarked) is higher in “hERG current change (%, negative = inhibition) at 1uM” value: -0.306% for the first, 7.24% for the second.

Compared with `O=C(Nc1ccccn1)NC1CCCCC1`, `O=C(Cn1c(C(=O)N2CCN(C3CCCCC3)CC2)cc2sccc21)c1ccccc1` is lower in “hERG current change (%, negative = inhibition) at 1uM” value: 7.91% for the first, -47.5% for the second.

Compared with `O=C(NCc1cccnc1)NC1(C(F)(F)F)Oc2ccc(Cl)cc2O1` (centres unmarked), `CN(CC(=O)Nc1ccccc1C(=O)NC1CC1)Cc1ccc(Cl)cc1` is lower in “hERG current change (%, negative = inhibition) at 1uM” value: 17.6% for the first, -10.2% for the second.

Compared with `Cc1occc1C(=O)NNC(=O)Nc1ccc(F)cc1F`, `O=C(Nc1nc2c(F)cc(F)cc2s1)c1ccccn1` is lower in “hERG current change (%, negative = inhibition) at 1uM” value: 18.7% for the first, 1.31% for the second.

Compared with `COc1ccc2[nH]c(C(=O)N3CCc4ccccc4C3)c(C)c2c1`, `Nc1nc(CN2CCc3ccccc3C2)nc(Nc2ccccc2)n1` is lower in “hERG current change (%, negative = inhibition) at 1uM” value: 10.4% for the first, -10.8% for the second.

First: O=C(CC1Nc2ccccc2NC1=O)Nc1ccccc1 (centres unmarked)
Second: CC1(C)Cc2cccc(OCC(=O)OCC(=O)Nc3ccccc3)c2O1
The “hERG current change (%, negative = inhibition) at 1uM” value of the first is lower: -1.16% for the first, 4.55% for the second.

Compared with `COc1cc([N+](=O)[O-])cc2cc(C(=O)NC(C)(C)C)c(=O)oc12`, `COc1cc(-c2nnc(SCC(=O)N3CCOCC3)o2)cc(OC)c1OC` is higher in “hERG current change (%, negative = inhibition) at 1uM” value: 0.075% for the first, 3.58% for the second.

Compared with `Cc1ccc2[nH]c3c(c2c1)CCc1cn[nH]c1-3`, `Cc1cc(=O)[nH]c2ccc(Cl)cc12` is lower in “hERG current change (%, negative = inhibition) at 1uM” value: 21.9% for the first, 3.34% for the second.

First: N/C(Cc1cccs1)=N\OC(=O)COc1ccc(Br)cc1
Second: COc1ccc(NC(=O)CCCCC(=O)Nc2ccc(OC)cc2)cc1
The “hERG current change (%, negative = inhibition) at 1uM” value of the first is lower: 8.46% for the first, 8.55% for the second.

Compared with `NNc1nc2c(Cl)cccc2s1`, `Cc1cc(C)n2nc(N)c(N=Nc3cccc(Cl)c3)c2n1` is lower in “hERG current change (%, negative = inhibition) at 1uM” value: 14.1% for the first, 3.62% for the second.

First: CC(=O)c1ccccc1OCCOCCOCCOc1ccccc1C(C)=O
Second: CCOC(=O)C1(Cc2ccccc2)CCN(Cc2ccc(COC)o2)CC1
The “hERG current change (%, negative = inhibition) at 1uM” value of the first is lower: 5.79% for the first, 13.9% for the second.

Compared with `N#C/C(=C\Nc1ccccc1SC(F)(F)F)c1nc(-c2ccc(F)cc2)cs1`, `O=C(NNc1c2ccccc2nc2ccccc12)C(O)c1ccccc1` (centres unmarked) is lower in “hERG current change (%, negative = inhibition) at 1uM” value: 15.5% for the first, 9.51% for the second.

Going from `Cc1n[nH]c(=S)n1/N=C/c1ccc(Br)o1` to `COc1ccc(/C=N/NC(=O)c2ccc(N3CCCC3=O)cc2)cc1`, the “hERG current change (%, negative = inhibition) at 1uM” value falls from 10.1% to 8.41%.

Compared with `COc1cccc(N(C(=O)c2ccn[nH]2)C2(C(=O)Nc3c(C)cccc3C)CCCCC2)c1`, `COc1ccc(-c2ccc3oc(-c4ccc(OC)cc4)c(C#CC4(O)CCCCC4)c3c2)cc1` is higher in “hERG current change (%, negative = inhibition) at 1uM” value: 1.35% for the first, 15.2% for the second.

Going from `c1ccc2c(c1)[nH]c1nc(SCCN3CCOCC3)nnc12` to `CCC(Oc1ccccc1)C(=O)N1CCN(CC)CC1` (centres unmarked), the “hERG current change (%, negative = inhibition) at 1uM” value rises from 5.28% to 11.9%.

First: CSCCC(NC(=O)c1ccco1)C(=O)O (centres unmarked)
Second: CC1=C(C(=O)OCc2ccccc2)C(c2ccsc2)NC(=O)N1C (centres unmarked)
The “hERG current change (%, negative = inhibition) at 1uM” value of the first is higher: 2.89% for the first, -6.57% for the second.

First: CCCSP1(=S)NCCCO1 (centres unmarked)
Second: CCCCNc1nc(N)ncc1[N+](=O)[O-]
The “hERG current change (%, negative = inhibition) at 1uM” value of the first is lower: 2.42% for the first, 7.62% for the second.

For `CCC(C)NCC(O)(c1ccc(Cl)cc1)c1ccc(Cl)cc1` (centres unmarked), the “hERG current change (%, negative = inhibition) at 1uM” value was -1.23%.
